# Results: the supplement of paper PMC8728848
# Some of the results follow.
# B1: mCC1-Hexahis-Precomplexed (Mus musculus), P31809 (protein)
# chain: MELASAHLHKGQVPWGGLLLTASLLASWSPATTAEVTIEAVPPQVAEDNNVLLLVHNLPLALGAFAWYKGNTTAIDKEIARFVPNSNMNFTGQAYSGREIIYSNGSLLFQMITMKDMGVYTLDMTDENYRRTQATVRFHVHPILLKPNITSNNSNPVEGDDSVSLTCDSYTDPDNINYLWSRNGESLSEGDRLKLSEGNRTLTLLNVTRNDTGPYVCETRNPVSVNRSDPFSLNIIYGPDTPIISPSDIYLHPGSNLNLSCHAASNPPAQYFWLINEKPHASSQELFIPNITTNNSGTYTCFVNNSVTGLSRTTVKNITVLEPVTQPFLQVTNTTVKELDSVTLTCLSNDIGANIQWLFNSQSLQLTERMTLSQNNSILRIDPIKREDAGEYQCEISNPVSVRRSNSIKLDIIFDPTQGGLSDGHHHHHH
# Legend:
# Test in all cases: glycan array binding signal (z-score within array); higher = stronger binding
# Conditions in all cases: glycan notation: IUPAC condensed, linker removed
# Gal(a1-3)Gal(b1-3)GlcNAc = biological target: Gal(a1-3)Gal(b1-3)GlcNAc
# Procedure, shortened: (§1)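 Arrays were curated from the Consortium for Functional Glycomics database, 3228 in total, and kept only where the protein sequence was available. Binding is expressed as a within-array Z-score. This score was averaged across arrays of the same protein sequence at different concentrations or buffers and across linkers, and negative values can be read as non-binding.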
# [1] = biological target: Gal(a1-3)Gal(b1-3)GlcNAc(b1-2)Man
# Procedure, shortened: as §1
# [2] = biological target: Gal(a1-3)Gal(b1-3)GlcNAc(b1-2)Man(a1-3)[Gal(a1-3)Gal(b1-3)GlcNAc(b1-2)Man(a1-6)]Man(b1-4)GlcNAc(b1-4)GlcNAc
# Procedure, shortened: as §1
# [3] = biological target: Gal(a1-3)Gal(b1-3)GlcNAc(b1-3)GalNAc
# Procedure, shortened: as §1
# [4] = biological target: Gal(a1-3)Gal(b1-3)GlcNAc(b1-6)GalNAc
# Procedure, shortened: as §1
# [5] = biological target: Gal(a1-3)Gal(b1-3)[Fuc(a1-4)]GlcNAc(b1-2)Man(a1-3)[Gal(a1-3)Gal(b1-3)[Fuc(a1-4)]GlcNAc(b1-2)Man(a1-6)]Man(b1-4)GlcNAc(b1-4)GlcNAc
# Procedure, shortened: as §1
# Gal(a1-3)Gal(b1-4)Glc = biological target: Gal(a1-3)Gal(b1-4)Glc
# Procedure, shortened: as §1
# Gal(a1-3)Gal(b1-4)GlcNAc = biological target: Gal(a1-3)Gal(b1-4)GlcNAc
# Procedure, shortened: as §1
# [6] = biological target: Gal(a1-3)Gal(b1-4)GlcNAc(b1-2)Man
# Procedure, shortened: as §1
# [7] = biological target: Gal(a1-3)Gal(b1-4)GlcNAc(b1-2)Man(a1-3)[Gal(a1-3)Gal(b1-4)GlcNAc(b1-2)Man(a1-6)]Man(b1-4)GlcNAc(b1-4)GlcNAc
# Procedure, shortened: as §1
# [8] = biological target: Gal(a1-3)Gal(b1-4)GlcNAc(b1-3)GalNAc
# Procedure, shortened: as §1
# [9] = biological target: Gal(a1-3)Gal(b1-4)GlcNAc(b1-6)GalNAc
# Procedure, shortened: as §1
# [10] = biological target: Gal(a1-3)Gal(b1-4)[Fuc(a1-3)]GlcNAc
# Procedure, shortened: as §1
# [11] = biological target: Gal(a1-3)Gal(b1-4)[Fuc(a1-3)]GlcNAc(b1-2)Man(a1-3)[Gal(a1-3)Gal(b1-4)[Fuc(a1-3)]GlcNAc(b1-2)Man(a1-6)]Man(b1-4)GlcNAc(b1-4)GlcNAc
# Procedure, shortened: as §1
# Gal(a1-3)GalNAc = biological target: Gal(a1-3)GalNAc
# Procedure, shortened: as §1
# [12] = biological target: Gal(a1-3)[Gal(a1-4)]Gal(b1-4)GlcNAc
# Procedure, shortened: as §1
# [13] = biological target: Gal(a1-4)Gal(b1-3)GlcNAc(b1-2)Man(a1-3)[Gal(a1-4)Gal(b1-3)GlcNAc(b1-2)Man(a1-6)]Man(b1-4)GlcNAc(b1-4)GlcNAc
# Procedure, shortened: as §1
# Gal(a1-4)Gal(b1-4)Glc = biological target: Gal(a1-4)Gal(b1-4)Glc
# Procedure, shortened: as §1
# Gal(a1-4)Gal(b1-4)GlcNAc = biological target: Gal(a1-4)Gal(b1-4)GlcNAc
# Procedure, shortened: as §1
# [14] = biological target: Gal(a1-4)Gal(b1-4)GlcNAc(b1-2)Man(a1-3)[Gal(a1-4)Gal(b1-4)GlcNAc(b1-2)Man(a1-6)]Man(b1-4)GlcNAc(b1-4)GlcNAc
# Procedure, shortened: as §1
# [15] = biological target: Gal(a1-4)Gal(b1-4)GlcNAc(b1-3)Gal(b1-4)Glc
# Procedure, shortened: as §1
# Gal(a1-4)GlcNAc = biological target: Gal(a1-4)GlcNAc
# Procedure, shortened: as §1
# Gal(a1-6)Glc = biological target: Gal(a1-6)Glc
# Procedure, shortened: as §1
# Gal(b1-2)Gal = biological target: Gal(b1-2)Gal
# Procedure, shortened: as §1
# Gal(b1-3)Gal = biological target: Gal(b1-3)Gal
# Procedure, shortened: as §1
# Gal(b1-3)Gal(b1-4)GlcNAc = biological target: Gal(b1-3)Gal(b1-4)GlcNAc
# Procedure, shortened: as §1
# Gal(b1-3)GalNAc = biological target: Gal(b1-3)GalNAc
# Procedure, shortened: as §1
# [16] = biological target: Gal(b1-3)GalNAc(a1-3)[Fuc(a1-2)]Gal(b1-4)Glc
# Procedure, shortened: as §1
# [17] = biological target: Gal(b1-3)GalNAc(a1-3)[Fuc(a1-2)]Gal(b1-4)GlcNAc
# Procedure, shortened: as §1
# Gal(b1-3)GalNAc(b1-3)Gal = biological target: Gal(b1-3)GalNAc(b1-3)Gal
# Procedure, shortened: as §1
# [18] = biological target: Gal(b1-3)GalNAc(b1-3)Gal(a1-4)Gal(b1-4)Glc
# Procedure, shortened: as §1
# [19] = biological target: Gal(b1-3)GalNAc(b1-4)Gal(b1-4)Glc
# Procedure, shortened: as §1
# [20] = biological target: Gal(b1-3)GalNAc(b1-4)[Neu5Ac(a2-3)]Gal(b1-4)Glc
# Procedure, shortened: as §1
# Gal(b1-3)GlcNAc = biological target: Gal(b1-3)GlcNAc
# Procedure, shortened: as §1
# [21] = biological target: Gal(b1-3)GlcNAc(a1-3)Gal(b1-4)GlcNAc
# Procedure, shortened: as §1
# [22] = biological target: Gal(b1-3)GlcNAc(a1-6)Gal(b1-4)GlcNAc
# Procedure, shortened: as §1
# Gal(b1-3)GlcNAc(b1-2)Man = biological target: Gal(b1-3)GlcNAc(b1-2)Man
# Procedure, shortened: as §1
# [23] = biological target: Gal(b1-3)GlcNAc(b1-2)Man(a1-3)[Gal(b1-3)GlcNAc(b1-2)Man(a1-6)]Man(b1-4)GlcNAc(b1-4)GlcNAc
# Procedure, shortened: as §1
binder,measurement,setting,value
B1,glycan array binding signal (z-score),Gal(a1-3)Gal(b1-3)GlcNAc,-0.068
same,glycan array binding signal (z-score),[1],-0.169
same,glycan array binding signal (z-score),[2],-0.189
same,glycan array binding signal (z-score),[3],-0.305
same,glycan array binding signal (z-score),[4],-0.269
same,glycan array binding signal (z-score),[5],-0.11
same,glycan array binding signal (z-score),Gal(a1-3)Gal(b1-4)Glc,-0.137
same,glycan array binding signal (z-score),Gal(a1-3)Gal(b1-4)GlcNAc,-0.189
same,glycan array binding signal (z-score),[6],-0.254
same,glycan array binding signal (z-score),[7],-0.161
same,glycan array binding signal (z-score),[8],-0.221
same,glycan array binding signal (z-score),[9],-0.245
same,glycan array binding signal (z-score),[10],-0.214
same,glycan array binding signal (z-score),[11],0.03
same,glycan array binding signal (z-score),Gal(a1-3)GalNAc,0.124
same,glycan array binding signal (z-score),[12],-0.214
same,glycan array binding signal (z-score),[13],-0.14
same,glycan array binding signal (z-score),Gal(a1-4)Gal(b1-4)Glc,-0.253
same,glycan array binding signal (z-score),Gal(a1-4)Gal(b1-4)GlcNAc,-0.227
same,glycan array binding signal (z-score),[14],-0.232
same,glycan array binding signal (z-score),[15],-0.233
same,glycan array binding signal (z-score),Gal(a1-4)GlcNAc,-0.205
same,glycan array binding signal (z-score),Gal(a1-6)Glc,-0.166
same,glycan array binding signal (z-score),Gal(b1-2)Gal,-0.263
same,glycan array binding signal (z-score),Gal(b1-3)Gal,-0.234
same,glycan array binding signal (z-score),Gal(b1-3)Gal(b1-4)GlcNAc,-0.202
same,glycan array binding signal (z-score),Gal(b1-3)GalNAc,-0.115
same,glycan array binding signal (z-score),[16],-0.269
same,glycan array binding signal (z-score),[17],-0.191
same,glycan array binding signal (z-score),Gal(b1-3)GalNAc(b1-3)Gal,-0.278
same,glycan array binding signal (z-score),[18],-0.146
same,glycan array binding signal (z-score),[19],-0.182
same,glycan array binding signal (z-score),[20],-0.269
same,glycan array binding signal (z-score),Gal(b1-3)GlcNAc,-0.25
same,glycan array binding signal (z-score),[21],-0.095
same,glycan array binding signal (z-score),[22],-0.244
same,glycan array binding signal (z-score),Gal(b1-3)GlcNAc(b1-2)Man,-0.26
same,glycan array binding signal (z-score),[23],-0.103
